Results: PubChem BioAssay AID624296 (National Center for Advancing Translational Sciences (NCATS), 2012)
Screen size: about 350,000 compounds; about 9,900 (2.8%) were called active. This list was built around the results that the source calls inconclusive (neither active nor inactive); the mix of calls is not that of the screen. Calls follow the shape of the dose curve; as a rule, active = well fitted activation curve with a large enough effect; inconclusive = small, poorly fitted or top-dose-only effect; inactive = no such curve, though single readings can be large or run the other way. No potency is given beside an inconclusive call; the fits are too rough.
Potency is read from the fitted curve at half-maximal effect; tags tell the direction and shape of the fitted curve.

Experiment: A quantitative high throughput screen for small molecules that induce DNA re-replication in MCF 10a normal breast cells. Also: nearly all actives have a fitted effect of over 50% in size. As to activity, positive = re-replication: % of control where 0% means no effect.
Conditions: MCF 10A DNA re-replication, Hoechst nuclear intensity, 48 h; activity, positive = re-replication: at 46.1 µM (top of the series)
With `CC12CCC(C(=O)Nc3cccnc3)(CC1=O)C2(C)C` (stereo not given) the “activity, positive = re-replication” value was inactive: 2.65%. In the case of `CCOC(=O)C1=C(C)N(c2ccc(OC)cc2)C(=O)/C1=C\c1cccs1`, the Potency is reported as inconclusive [activator, single point]. With `O=C(CCl)Nc1cccc(CP(=O)(c2ccccc2)c2ccccc2)c1` the Potency was inconclusive [activator, partial curve, poor fit]. For `O=C(NCc1ccc2c(c1)OCO2)C1CCN(S(=O)(=O)c2cccs2)CC1`, the Potency was inconclusive [activator, partial curve, poor fit]. In the case of `O=C1NC(=S)S/C1=C\c1cc(Cl)cc(Cl)c1O`, the Potency is reported as inconclusive [activator, partial curve]. In the case of `CC(C)(c1ccccc1)c1ccc(OCC(O)CN2CCCC2)cc1` (stereo not given), the Potency is reported as inconclusive [activator, partial curve]. With `Cc1ccc(C(=O)c2c3ccc([N+](=O)[O-])cc3[n+]([O-])n2CCCC(N)=O)cc1` the “activity, positive = re-replication” value was inactive: 7.84%. In the case of `COc1cc(/C=C2\SC(=Nc3ccc(O)cc3)NC2=O)cc(OC)c1OC`, the Potency is reported as inconclusive [activator, partial curve]. In the case of `CN(C)c1ccc(S(=O)(=O)N2CCCCC2)cc1NC(=O)COc1ccccc1F`, the “activity, positive = re-replication” value is reported as inactive: 18.9%. With `O=C(NCc1ccc(F)cc1)C1CCN(S(=O)(=O)c2ccc(Cl)cc2)CC1` the Potency was inconclusive [activator, single point]. For `CC(C)/C=C1\CC/C(=C\c2ccc(N(C)C)cc2)C1=O`, the Potency was inconclusive [activator, single point]. With `Cc1ccccc1N1CCN(C2CCCN(C(=O)c3ccsc3)C2)CC1` (stereo not given) the Potency was inconclusive [activator, single point]. In the case of `Cc1ccc(NC(=S)NCCN(C2CCCCC2)C2CCCC2)cc1`, the “activity, positive = re-replication” value is reported as inactive: 1.91%. For `CC[C@]12c3[nH]c4ccc(Cl)cc4c3CCN1C(=O)[C@@H](CC(=O)NCCC1=CCCCC1)C[C@@H]2C(=O)N1CCN(C(=O)c2ccco2)CC1`, the Potency was inconclusive [activator, single point]. For `CSc1cccc(NC(=O)NNC(=O)C2CCN(S(=O)(=O)N(C)C)CC2)c1`, the “activity, positive = re-replication” value was inactive: 0.384%. For `COC(=O)/C=C/C(=O)N1CCN(c2cccc(Cl)c2)CC1`, the Potency was inconclusive [activator, single point]. For `OC1(c2ccc(F)cc2)CN(c2ccccc2)C2=[N+]1CCS2` (stereo not given), the Potency was inconclusive [activator, single point]. For `Cc1ccc(C)c2[nH]c(=O)c(C(c3nnnn3C(C)(C)C)N3CC=C(c4ccc(F)cc4)CC3)cc12` (stereo not given), the Potency was inconclusive [activator, partial curve, poor fit]. For `CCCCCCn1c(C)nc2c(c1=O)c1nc3ccccc3nc1n2/N=C/c1ccco1`, the Potency was inconclusive [activator, full curve]. With `CC(=O)Nc1ccc(S(=O)(=O)N2CCN=C2c2ccccc2)cc1` the “activity, positive = re-replication” value was inactive: 9.32%. For `O=C(Nc1ccc(Br)cc1Cl)c1ccc(OCC2CCCO2)cc1` (stereo not given), the Potency was inconclusive [activator, partial curve, poor fit]. In the case of `c1ccc2c(N3CCCCCC3)nc(-c3ccncc3)nc2c1`, the Potency is reported as inconclusive [activator, single point]. With `O=C(Nc1cccnc1)c1cc(S(=O)(=O)N2CCCCC2)c(Cl)cc1Cl` the Potency was inconclusive [activator, single point]. In the case of `C=C1c2c(Cl)ccc(O)c2C(O)=C2C(=O)[C@]3(O)C(O)=C(C(N)=O)C(=O)[C@@H](N(C)C)[C@@H]3[C@@H](O)C12` (stereo not given in full), the Potency is reported as inconclusive [activator, single point]. For `CC(C)c1ccccc1OCC(=O)NC1CCCc2ccccc21` (stereo not given), the Potency was inconclusive [activator, partial curve, poor fit]. With `O=C(c1ccc(N2CCN(C(=O)c3ccccc3Br)CC2)cc1)c1cccc(F)c1` the Potency was inconclusive [activator, single point]. In the case of `Cc1cc(NC(=O)c2cccc(S(=O)(=O)N3c4ccccc4CC3C)c2)no1` (stereo not given), the “activity, positive = re-replication” value is reported as inactive: 14.1%. In the case of `N=c1n(Cc2ccc(Cl)cc2)c2ccccc2n1CC(O)COc1ccccc1` (stereo not given), the Potency is reported as inconclusive [activator, single point]. In the case of `O=C(Nn1c(-c2ccc(Br)cc2)nc2ccccc2c1=O)c1ccc([N+](=O)[O-])cc1`, the Potency is reported as inconclusive [activator, single point]. For `O=C(C1CCCN(S(=O)(=O)c2cccc3nsnc23)C1)N1CCN(c2ccccn2)CC1` (stereo not given), the Potency was inconclusive [activator, partial curve, poor fit]. For `O=C(c1ccc2c(c1)OCO2)C1CCCN(Cc2cccc(C(F)(F)F)c2)C1` (stereo not given), the Potency was inconclusive [activator, single point]. With `CCn1c(C(=O)NCCCN2CCc3ccccc3C2)cc2sccc21` the “activity, positive = re-replication” value was inactive: 6.41%. In the case of `O=C(Nc1ccc(/C=C/c2nc3ccccc3o2)cc1)c1ccc(F)cc1`, the Potency is reported as inconclusive [activator, full curve]. With `CC(=O)Nc1cccc(-c2nn[nH]n2)c1` the Potency was inconclusive [activator, full curve, poor fit]. With `CCOC(=O)C1CCCN(CC(=O)Nc2c(C(=O)OC)[nH]c3ccc(Br)cc23)C1` (stereo not given) the Potency was inconclusive [activator, partial curve]. In the case of `N#Cc1nc(/C=C/c2ccccc2)oc1NCCCN1CCOCC1`, the Potency is reported as active: 23.1 µM. In the case of `Cc1nc(C(C)N(C)Cc2nc(-c3ccc4c(c3)OCO4)no2)c(C)s1` (stereo not given), the Potency is reported as inconclusive [activator, single point]. For `O=C(NC1CCCCC1)N1CCN(c2nc(-c3ccccc3)cs2)CC1`, the Potency was inconclusive [activator, partial curve, poor fit]. For `Cc1ccc(-c2cc(C(=O)N3CCN(c4ccc(F)cc4)CC3)c3ccccc3n2)o1`, the Potency was inconclusive [activator, single point]. With `CCC(=O)Nc1cc2nn(-c3ccccc3)nc2cc1Cl` the Potency was inconclusive [activator, partial curve, poor fit].
